Assay results from patent US20210008161A1, “METHODS AND COMPOSITIONS FOR IMPROVED HOMOLOGY DIRECTED REPAIR” (CRISPR THERAPEUTICS AG, priority 2019, published 2021).

How the values were obtained:
[1] = test system: human LT-HSPCs administered to cKit mice; assay: Engraftment (percent chimerism) of edited human LT-HSPCs in mice by flow cytometry; assay type: in vivo, mouse; settings: Example 7; for chimerism in bone marrow: 16 weeks, FIG. 24B
Experimental: The cells were administered by intravenous injection to cKit mice at 2 days following electroporation. Recipient mice were treated with sublethal irradiation (100 cGy) at 1 day prior to administration of LT-HSPCs to eliminate hematopoietic cells in the bone marrow and enable engraftment of the donor cells. Animals were evaluated for presence of human hematopoietic cells in peripheral blood at 8 and 16 weeks following LT-HSPC administration. The bone marrow was also evaluated for engraftment and maintenance of the HBB gene-edit at 16 weeks following LT-HSPC administration.
(§1) Presence of human hematopoietic cells was measured by flow cytometry in mouse blood or bone marrow samples. Cells were gated on singlet, live cells. Mouse and human CD45-expressing hematopoietic cells were distinguished by antibodies targeting mouse or human CD45. Engraftment was measured as percent chimerism which was defined as the quantity of human CD45 positive cells divided by the total number of CD45 positive cells (e.g., human and mouse CD45 expressing cells combined). The lineage of human CD45 positive cells was determined using markers for CD19 (e.g., B cells), CD3 (e.g., T cells), CD33 (e.g., myeloid cells), and CD34 (hematopoietic stem/progenitor cells (HSPCs)).
Human LT-HSPCs were administered to mice following electroporation with Cas9/gRNA and AAV encoding a sickle cell mutation (E7V) as shown in FIG. 21. LT-HSPCs were mobilized from healthy donors using plerixafor. LT-HSPCs were gene-edited following 2 days in culture.
A dose of 0.5×10^6 cells was administered by intravenous injection to cKit mice at 2 days following electroporation. Recipient mice were treated with sublethal irradiation (100 cGy) at 1 day prior to administration of LT-HSPCs to eliminate hematopoietic cells in the bone marrow and enable engraftment of the donor cells. Animals were evaluated for presence of human hematopoietic cells in peripheral blood at 8 and 16 weeks following LT-HSPC administration. The bone marrow was also evaluated for engraftment and maintenance of the HBB gene-edit at 16 weeks following LT-HSPC administration.
Edited cells were administered in vivo as described in Example 5, and the level of engraftment of human hematopoietic progenitor cells was evaluated in mouse bone marrow. Briefly, a dose of approximately 5×10^6 per animal LT-HSPCs was administered by intravenous injection to cKit mice at two days post-editing. Recipient mice were treated with sublethal irradiation (100 cGy) at 1 day prior to administration of LT-HSPCs. At 16 weeks following administration, the presence of human hematopoietic cells in mouse bone marrow samples was evaluated by flow cytometry as described in Example 5. […] However, their ability to do so can depend on, for example, the donor from which the cells are obtained, method of isolation, culture conditions or cell cycle status.

[2] = test system: human LT-HSPCs administered to cKit mice; assay: Lineage analysis of engrafted CD45-expressing human cells in mouse bone marrow; assay type: in vivo; settings: Example 7; bone marrow 16 weeks; compared to treatment with i53; FIG. 25
Experimental: as §1
Shown in FIGS. 18A-18B is lineage analysis of engrafted CD45-expressing human cells in mouse bone marrow samples collected at 16 weeks post administration of LT-HSPCs. The lineage of CD45-expressing human leukocytes was evaluated for unedited LT-HSPCs administered at a dose of 0.01×10^6, 0.05×10^6, 0.1×10^6, or 0.25×10^6 cells (FIG. 18A). The lineage of CD45-expressing human leukocytes was also evaluated for LT-HSPCs edited with AAV+RNP either in the presence or absence of i53 (FIG. 18B).
Shown in FIG. 25 is lineage analysis of engrafted CD45-expressing human cells in mouse bone marrow samples collected at 16 weeks post administration of LT-HSPCs. […]

[3] = test system: human LT-HSPCs administered to cKit mice; assay: Maintenance of HBB gene-edit by HDR in mouse bone marrow by NGS assay; assay type: in vivo; settings: 16 weeks; for levels of gene-editing in the HBB locus in bone marrow: Example 7, AAV.304, vs AAV+RNP alone, FIG. 26B
Experimental: Maintenance of gene-editing was evaluated in mouse bone marrow collected at 16 weeks post-administration of LT-HSPCs. Incorporation of a sickle mutation (E7V) in the HBB locus was evaluated in DNA isolated from mouse bone marrow samples using the next generation sequencing assay described in Example 4. Shown in FIG. 19 is a comparison of HDR efficiency for LT-HSPCs edited either with or without i53. LT-HSPCs were electroporated with Cas9/gRNA and treated with AAV. […] LT-HSPCs edited in the presence of i53 had 1.8-fold higher HDR frequency in the bone marrow compared to cells edited with AAV+RNP alone.
Maintenance of gene-editing was evaluated in mouse bone marrow collected at 16 weeks post-administration of LT-HSPCs. Incorporation of a sickle mutation (E7V) in the HBB locus was evaluated in DNA isolated from mouse bone marrow samples using the next generation sequencing assay described in Example 4. […] LT-HSPCs were electroporated with Cas9/gRNA and treated with AAV prior to electroporation or following electroporation. Incorporation of the gene-edit in bone marrow samples was similar for LT-HSPCs edited with RNP and AAV given either pre-EP or post-EP. Additionally, incorporation of the gene edit in the HBB locus by HDR was compared for LT-HSPCs edited in the presence of i53 or Nu7441 (FIG. 26B).
The persistence of edits at the HBB gene locus in mouse bone marrow samples was also evaluated. Briefly, mouse bone marrow was isolated at 16 weeks post-administration of edited cells. Genomic DNA was isolated from the samples, and evaluated for incorporation of the edit encoded by AAV.323 at the HBB gene locus using the NGS assay as described in Example 4. Frequency of INDELs at the R02 cut site in the HBB gene locus was also assessed by NGS.

[4] = test system: CD34-expressing LT-HSPCs; assay: HDR incorporation of E7V sickle mutation at HBB locus by NGS assay; settings: Example 6; AAV.304 pre-EP + RNP; 1 μg i53 mRNA; FIG. 22B

| Compound | chimerism in bone marrow ([1]; vs RNP+AAV alone) | chimerism in blood ([1]; both 8 and 16 weeks, 5 μM Nu7441, FIG. 23B) | fold increase in chimerism in blood ([1]; over RNP+AAV alone, FIG. 23B) [fold] | proportion of CD34-expressing cells and myeloid cells among human leukocytes [2] | levels of gene-editing in the HBB locus in bone marrow [3] | chimerism in blood ([1]; blood at 8 and 16 weeks, 0.5×10^6 cells, vs RNP+AAV alone, FIG. 23B) | frequency of the AAV.323 gene edit incorporated by HDR in bone marrow ([3]; Example 8, FIG. 31B) | incorporation of the E7V gene edit [4] [%] |
| --- | --- | --- | --- | --- | --- | --- | --- | --- |
| O=c1cc(N2CCOCC2)oc2c(-c3cccc4c3sc3ccccc34)cccc12 [Nu7441] | higher | approximately 25% | 2.5 | greater proportion | comparable | – | – | – |
| i53: polypeptide inhibitor of 53BP1 (SEQ ID NO: 70), introduced as an mRNA-encoded protein (ORF SEQ ID NO: 69) | comparable | – | – | – | substantially higher | comparable | maintained | 58 |
